Each structure is given as a SMILES string. Out of some 50,000 compounds screened, about 800 (1.6%) showed an effect of 50% or more. This is one part of the list.

This test concerns the target Bcl-2-like protein 10 (Homo sapiens) (UniProt Q9HD36). Nature of the test: TR3 peptide-Bcl-B binding displacers, biochemical primary FP assay, phenotype converters (AID 1240).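 Also: 0% = Bcl-B with tracer peptide and DMSO and 100% = tracer peptide lacking Bcl-B.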 The following applies: GST-Bcl-B / FITC-TR3 peptide fluorescence polarization; stronger effect = higher value; compound at 3.75 mg/L.
Sequence of UniProt Q9HD36 (Q9HD36 whole entry, looked up): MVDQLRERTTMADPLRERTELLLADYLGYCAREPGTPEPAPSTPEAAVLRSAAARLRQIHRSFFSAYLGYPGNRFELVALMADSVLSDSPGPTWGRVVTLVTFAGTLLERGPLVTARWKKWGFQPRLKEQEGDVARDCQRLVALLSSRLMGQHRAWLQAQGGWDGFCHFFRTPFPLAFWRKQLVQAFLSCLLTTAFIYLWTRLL
In the case of `Cc1ccc(C)c(S(=O)(=O)n2cnc3ccccc32)c1`, the displacement worked out at 4.5%.

With `COc1ccc2c(c1OC)C(=O)N1N=C(c3ccc(I)cc3)CC21` (stereo unspecified), the displacement was 1.3%.

Turning to `O=S(=O)(c1ccc(Oc2ccccc2)cc1)N1CCCCCC1`, the displacement was -8.7%.

Regarding `O=C(Nc1ccccc1F)c1ccc2nccnc2c1`, the displacement turned out to be 2.8%.

Take `Cc1ccc(-c2[nH]n3c(=O)c4c(nc3c2C)CCS4)cc1`: the displacement is -0.6%.

As for `CCOC(=O)c1c(N)sc(C(=O)Nc2ccc(C)cc2C)c1C`, the displacement was -2.7%.

As to `Cc1ccccc1NCC(=O)N/N=C\c1ccc(-c2cccc(Cl)c2)o1`, the displacement was determined as 5.1%.

`NC(=O)c1ccc(Sc2nc3ccccc3s2)c([N+](=O)[O-])c1`: the displacement is 1.4%.

Consider `CCOC(=O)Cc1csc(NC(=O)c2ccco2)n1`, for which the displacement is -5%.

As for `Cc1ccc(C(=O)Nc2ccc(NC(=O)c3cccc(C)c3)cc2)cc1`, the displacement turned out to be 14%.

For `CCCOc1ccc(/C=C2\SC(=S)N(NC(=O)c3ccncc3)C2=O)cc1OC`, the displacement was -2.9%.

On to `CCOC(=O)C1=C(C)NC(C)=C(C(=O)OC)C1c1ccc(C)cc1` (stereo unspecified), for which the displacement was 5.2%.

On to `COc1cc2c(cc1OC)C(Nn1cnnc1)=NC1(CCCC1)C2`, for which the displacement was -5.2%.

With `CCOc1ccc(/C=C2/C(=O)NC(=O)N(c3ccc(OC)cc3)C2=O)c(OCC)c1`, the displacement is -4%.

For `NC(=O)CN(c1ccc(F)cc1)S(=O)(=O)c1ccccc1`, the displacement was found to be 0.8%.

As to `COC(=O)c1ccc(NC(=O)Cc2ccccc2[N+](=O)[O-])cc1`, the displacement is -2.9%.

Turning to `CC(=O)CC(=O)Nc1ccc(C)c(Cl)c1`, the displacement was -2.4%.

Consider `CN1C(=O)C(=O)/C(=C(\O)c2ccc(Cl)cc2)C1c1cccc([N+](=O)[O-])c1` (stereo unspecified), for which the displacement was -3.3%.

On to `O=C(CN1C(=O)c2ccccc2C1=O)Nc1ccc(Cl)cn1`, for which the displacement was 0.4%.

Regarding `O=C1CC(NC2CCCCC2)C(=O)N1c1ccc(I)cc1` (stereo unspecified), the displacement is -3.6%.

Consider `Cc1ccc2c(NC(=O)c3ccccc3F)cccc2n1`, for which the displacement amounted to 2.3%.

As to `O=[N+]([O-])c1ccc(Nc2nc(-c3ccccc3)cc(-c3ccccc3)n2)cc1`, the displacement stood at 16.8%.

Consider `CCOC(=O)c1c(-c2ccc(C)cc2)csc1NC(=O)c1ccccc1F`, for which the displacement stood at 13.2%.

As to `O=C(NC(=S)Nc1cccc(-c2nc3ccccc3s2)c1)c1ccco1`, the displacement amounted to 9.7%.

For the compound `CCCOC(=O)c1ccc(NC(=O)c2cccc([N+](=O)[O-])c2C)cc1`, the displacement is -5.3%.

Consider `COc1ccc(NC(=O)c2ccccc2NC(=O)c2ccc(C)cc2)cc1`, for which the displacement was -10.2%.

Regarding `O=C(N/N=C\c1c(F)cccc1Cl)c1cnccn1`, the displacement was -8%.

Turning to `COc1cc(/C=N/Nc2nc(N3CCOCC3)nc(N3CCOCC3)n2)cc(Cl)c1O`, the displacement amounted to 8.7%.

As for `CCn1c2c(c3cc(C4CCCCC4)ccc31)CCCC2O` (stereo unspecified), the displacement is 2.5%.

Regarding `O=C(COC(=O)c1ccccc1)c1ccc2c(c1)OCCO2`, the displacement is -12.1%.

`O=C(c1cccc(F)c1)N1CCN(Cc2ccc(C(F)(F)F)cc2)CC1`: the displacement was found to be 1.9%.

As for `Cc1ccc(C(=O)N2CCN(c3ccc(F)cc3)CC2)cc1C`, the displacement worked out at 4.5%.

As to `COc1ccccc1/C=c1\sc2nc(-c3ccc(C)cc3)nn2c1=O`, the displacement is 61.7%.

For `COc1ccc(C2=NN(C(=O)CCC(=O)O)C(c3cccs3)C2)cc1` (stereo unspecified), the displacement is 15.9%.

With `N#C/C(=C\c1ccc(N2CCOCC2)o1)C(=O)NCC1CCCO1` (stereo unspecified), the displacement is -102%.

Turning to `CCc1ccc(S(=O)(=O)Nc2cc(-c3c(O)ccc4ccccc34)c(O)c3ccccc23)cc1`, the displacement amounted to 7.1%.

With `O=C(CC1Sc2ccc(C(F)(F)F)cc2NC1=O)Nc1ccccc1F` (stereo unspecified), the displacement was -24.4%.

Regarding `COC(=O)CSc1nc(N)c2c3c(sc2n1)CC(C(C)(C)C)CC3` (stereo unspecified), the displacement turned out to be 4.1%.

Turning to `O=C1c2ccccc2C(=O)N1CCc1nc2ccccc2c(=O)n1Cc1ccccc1`, the displacement is -3.6%.

Consider `CC(C)NC(=O)C12CC3CCC(CC(C3)C1)C2`, for which the displacement was found to be 15.1%.

Take `C=CCN1C(=O)/C(=C/c2ccc(C)cc2)SC1=S`: the displacement worked out at 9%.

As to `Cc1ccccc1C(=O)NNC(=S)Nc1ccccc1`, the displacement is -24.2%.

For the compound `O=C(N/N=C\c1cccc(O)c1)C(=O)N/N=C/c1cccc(O)c1`, the displacement was -10.8%.

On to `CC(C)OC(=O)/C=C(\N)c1ccccc1`, for which the displacement turned out to be 14.6%.

Regarding `CC(=O)CC(=O)NCCc1ccccc1`, the displacement is -2.7%.

`Cc1ccc(NC(=O)c2ccncc2)cc1`: the displacement was -5.8%.

In the case of `CCOc1ccc(NC(=O)c2cccc(F)c2)c([N+](=O)[O-])c1`, the displacement was found to be 3.3%.

`O=C1/C(=C\c2cccnc2)SC(=S)N1c1cccc(C(F)(F)F)c1`: the displacement is -6%.

Regarding `COC(=O)c1c(O)ccc(Oc2ccccc2)c1C(=O)OC`, the displacement is -3.2%.

Consider `COC(=O)C1=C(C(=O)OC)SC(=C2C(=S)C(C)(C)N(C(=O)Cc3ccccc3)c3ccc(OC)cc32)S1`, for which the displacement is -6.7%.

For the compound `CC(C)c1ccc(N2C(=O)NC(=O)/C(=C/c3ccc([N+](=O)[O-])o3)C2=O)cc1`, the displacement is -7.9%.

`O=[N+]([O-])c1ccc(NS(=O)(=O)c2cccc3cccnc23)cc1`: the displacement turned out to be 1%.

Take `Cc1cc(C)c(S(=O)(=O)Nc2cc(Br)c(O)c3ccccc23)c(C)c1`: the displacement worked out at 37%.

In the case of `Cc1c(NC(=O)COc2ccc(F)cc2)c(=O)n(-c2ccccc2)n1C`, the displacement was determined as 1.4%.

Turning to `CC1C(c2ccc(Cl)cc2)NC(c2ccc(Cl)cc2)C(C)C1(O)c1ccc(F)cc1` (stereo unspecified), the displacement is -4.8%.

As for `O=[N+]([O-])c1cc2c(cc1/C=N/n1cnnc1)OCO2`, the displacement turned out to be 2.6%.

As to `NNC(=O)/C(=C/c1ccc2c(c1)OCO2)NC(=O)c1ccccc1`, the displacement is -2.7%.

Take `COc1ccccc1C(=O)N/N=C(\C)c1ccc(C)o1`: the displacement is -23.6%.

In the case of `Cc1ccc(C2Nc3ccccc3NC3=C2C(=O)CC(c2ccccc2)C3)o1` (stereo unspecified), the displacement came out at 33.6%.

On to `CCC/C(O)=C1/C(=O)CC(C)(C)CC1=NCCCCCCN=C1CC(C)(C)CC(=O)/C1=C(/O)CCC`, for which the displacement came out at 2.6%.

Consider `C=CCc1cccc2cc(C(=O)NCCc3ccccc3)c(=O)oc12`, for which the displacement is 8.5%.

As to `COc1cccc(NC(=O)C2CC(=O)N=C(N)S2)c1` (stereo unspecified), the displacement was determined as 12.9%.

On to `CCC(C)c1ccc(OCC(=O)Nc2ccc3c(c2)C(=O)N(c2cccc(C)c2C)C3=O)cc1` (stereo unspecified), for which the displacement was -26.3%.

On to `O=C(O)C1CCCCC1C(=O)Nc1nc2ccc(Br)cc2s1` (stereo unspecified), for which the displacement is -9.7%.

For the compound `O=C(CCCOc1ccccc1)Nc1ccccc1C(F)(F)F`, the displacement was -8.2%.

As for `O=[N+]([O-])c1ccc(N2CCCCC2)cc1NCCCO`, the displacement was 4.2%.

For the compound `O=C(CSc1ncc(-c2ccccc2)[nH]1)Nc1ccc(Br)cc1`, the displacement was 7.7%.

For the compound `O=C1CN(S(=O)(=O)CCOc2ccccc2)CC(=O)N1CCOc1ccccc1`, the displacement was determined as 4%.

`O=C1N=c2ccccc2=C1c1sc(=S)n(-c2ccc(F)cc2)c1O`: the displacement was determined as 14.2%.

On to `Cc1ccc(/C=N/N2C(=O)c3ccccc3C2=O)s1`, for which the displacement was 1.2%.

Take `COc1ccc(N(CC(=O)Nc2cccc(Br)c2)S(C)(=O)=O)c(OC)c1`: the displacement is -5.7%.

Values taken from PubChem BioAssay AID1240 (Sanford-Burnham Center for Chemical Genomics, 2008).
